{
  "source": "paper PMC4336329",
  "about": "(PLoS ONE, 2015)",
  "note": "Hit rate of the full screen: of about 310,000 compounds, about 2,200 (0.71%) showed an effect of 50% or more. The effect is printed as a negative number. The list shows a part of the results.",
  "data": [
    {"target": "human ether-à-go-go-related gene (hERG) potassium channel (human, UniProt Q12809)", "sequence (Q12809 whole entry, looked up)": "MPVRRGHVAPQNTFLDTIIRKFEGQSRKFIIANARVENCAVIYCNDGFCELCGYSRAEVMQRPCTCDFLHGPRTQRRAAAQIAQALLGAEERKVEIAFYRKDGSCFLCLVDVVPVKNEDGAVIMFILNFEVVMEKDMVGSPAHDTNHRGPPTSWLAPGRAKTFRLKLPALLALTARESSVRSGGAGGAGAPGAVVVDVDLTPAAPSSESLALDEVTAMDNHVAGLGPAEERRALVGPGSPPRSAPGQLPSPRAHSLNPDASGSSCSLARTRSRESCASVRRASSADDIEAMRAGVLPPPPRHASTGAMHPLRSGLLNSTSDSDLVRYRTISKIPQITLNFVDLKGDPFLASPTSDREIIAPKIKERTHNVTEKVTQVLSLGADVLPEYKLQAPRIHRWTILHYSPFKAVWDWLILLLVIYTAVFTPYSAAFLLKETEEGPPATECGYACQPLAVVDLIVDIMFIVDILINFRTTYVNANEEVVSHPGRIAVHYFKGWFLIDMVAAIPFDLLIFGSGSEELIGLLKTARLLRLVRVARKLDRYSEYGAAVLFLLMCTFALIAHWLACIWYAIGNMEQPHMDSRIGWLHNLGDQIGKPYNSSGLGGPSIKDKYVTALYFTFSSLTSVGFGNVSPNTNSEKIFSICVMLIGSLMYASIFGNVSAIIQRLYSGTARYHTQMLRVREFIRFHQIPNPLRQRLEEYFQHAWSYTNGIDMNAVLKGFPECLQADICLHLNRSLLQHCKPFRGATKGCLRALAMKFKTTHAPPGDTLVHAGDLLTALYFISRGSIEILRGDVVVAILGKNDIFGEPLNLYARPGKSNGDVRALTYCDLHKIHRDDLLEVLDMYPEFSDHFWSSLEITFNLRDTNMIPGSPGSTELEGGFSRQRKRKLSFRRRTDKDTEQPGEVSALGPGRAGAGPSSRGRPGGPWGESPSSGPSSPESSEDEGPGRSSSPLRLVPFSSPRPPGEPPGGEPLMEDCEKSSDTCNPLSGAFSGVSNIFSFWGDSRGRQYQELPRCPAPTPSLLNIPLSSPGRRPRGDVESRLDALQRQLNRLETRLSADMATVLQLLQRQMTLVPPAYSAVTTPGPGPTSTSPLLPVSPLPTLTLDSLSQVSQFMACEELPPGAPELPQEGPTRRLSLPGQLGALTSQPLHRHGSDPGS", "test": "primary screen, population patch clamp on CHO cells stably expressing hERG", "units": {"hERG current change (%, negative = inhibition) at 1uM": "%"}, "values": [
      {"smiles": "CCCn1c(SCC(=O)N2CCN(C(=O)c3ccco3)CC2)nc2ccccc2c1=O", "hERG current change (%, negative = inhibition) at 1uM": -84.8},
      {"smiles": "COc1ccc(N(C)C(=O)CCS(=O)(=O)c2cccc3nonc23)cc1", "hERG current change (%, negative = inhibition) at 1uM": 11.5},
      {"smiles": "COC(=O)CNC(=O)CSc1nnc(C)c(=O)[nH]1", "hERG current change (%, negative = inhibition) at 1uM": 12.4},
      {"smiles": "Cc1ccc(S(=O)(=O)NC(=NC(C)C(=O)O)c2ccccc2)cc1", "note": "(stereo not shown)", "hERG current change (%, negative = inhibition) at 1uM": 6.96},
      {"smiles": "Cc1ccc(C(=O)NC(=S)Nc2ccc(N3CCOCC3)cc2)cc1C", "hERG current change (%, negative = inhibition) at 1uM": 3.84},
      {"smiles": "CCOc1ccc(S(=O)(=O)Nc2ccc3c(c2)OCO3)cc1", "hERG current change (%, negative = inhibition) at 1uM": 11.5},
      {"smiles": "O=C1N(C2CCCC2)C[C@@H]2C[C@@H](c3cccn3-c3nccs3)N3CCC[C@@]123", "hERG current change (%, negative = inhibition) at 1uM": -60.3},
      {"smiles": "CSc1ccccc1NC(=O)CCn1c(=O)sc2ccccc21", "hERG current change (%, negative = inhibition) at 1uM": 13.2},
      {"smiles": "Cc1cc(C)n2nc(SCC(=O)N/N=C/c3cccc(Br)c3)nc2n1", "hERG current change (%, negative = inhibition) at 1uM": 8.63},
      {"smiles": "CCCN(CCC)C(=O)c1cc(S(=O)(=O)N2CCCCC2)c[nH]1", "hERG current change (%, negative = inhibition) at 1uM": -8.85},
      {"smiles": "C[NH+](C)CC(C)(C)CNS(=O)(=O)c1cccc(Cl)c1Cl.[Cl-]", "hERG current change (%, negative = inhibition) at 1uM": 7.97},
      {"smiles": "C/C(CC(=O)Nc1ccccc1)=N\\NC(=O)COc1ccc(C)cc1Br", "hERG current change (%, negative = inhibition) at 1uM": 3.03},
      {"smiles": "O=C(CNS(=O)(=O)c1ccccc1)NNC(=O)C(Cl)Cl", "hERG current change (%, negative = inhibition) at 1uM": 14.1},
      {"smiles": "O=C(CSc1n[nH]c(=O)n1C1CC1)N1N=C(c2ccc(Cl)cc2)CC1c1ccco1", "note": "(stereo not shown)", "hERG current change (%, negative = inhibition) at 1uM": 5.88},
      {"smiles": "Cc1ccc(C(=O)COC(=O)CN2C(=O)C3C4C=CC(C4)C3C2=O)cc1C", "note": "(stereo not shown)", "hERG current change (%, negative = inhibition) at 1uM": 6.5},
      {"smiles": "COC(=O)c1[nH]c2ccc(Br)cc2c1NC(=O)Oc1ccccc1", "hERG current change (%, negative = inhibition) at 1uM": 16.4},
      {"smiles": "NS(=O)(=O)c1ccc(CCNC(=O)CSCc2ccccc2)cc1", "hERG current change (%, negative = inhibition) at 1uM": 9.64},
      {"smiles": "O=C(O)c1cc(S(=O)(=O)NC(CO)C(O)c2ccc([N+](=O)[O-])cc2)ccc1Br", "note": "(stereo not shown)", "hERG current change (%, negative = inhibition) at 1uM": 10.9},
      {"smiles": "COc1ccc(-c2csc3ncnc(NCCN4CCOCC4)c23)cc1", "hERG current change (%, negative = inhibition) at 1uM": 0.221},
      {"smiles": "O=C(NC12CC3CC(CC(C3)C1)C2)c1cc([N+](=O)[O-])ccc1N1CCOCC1", "hERG current change (%, negative = inhibition) at 1uM": 7.7},
      {"smiles": "Cc1cc(C)cc(SCc2noc(C(=O)NCCCN3CCOCC3)c2C(=O)NCCCN2CCOCC2)c1", "hERG current change (%, negative = inhibition) at 1uM": -1.87},
      {"smiles": "O=C(CN(CC1CCCO1)C(=O)CNS(=O)(=O)c1ccc(Cl)cc1)NCc1ccccc1", "note": "(stereo not shown)", "hERG current change (%, negative = inhibition) at 1uM": 12.3},
      {"smiles": "N#CC(Cc1ccccc1)(Cc1ccccc1)C(=O)NN", "hERG current change (%, negative = inhibition) at 1uM": 13.5},
      {"smiles": "COC(=O)C1CCN(CC(=O)NC(=O)NC2CCCCC2)CC1", "hERG current change (%, negative = inhibition) at 1uM": 7.03},
      {"smiles": "COc1ccc2c(c1)cc(C(=O)N[C@H](C(=O)N1CCC(C(=O)O)CC1)C(C)C)n2C", "hERG current change (%, negative = inhibition) at 1uM": 14.5},
      {"smiles": "CN(C(=O)CSc1nc2ccccc2n1CCc1ccccc1)C1CCS(=O)(=O)C1", "note": "(stereo not shown)", "hERG current change (%, negative = inhibition) at 1uM": -1.54},
      {"smiles": "CC1(C)CCN(Cc2ccccc2)C1CC#N", "note": "(stereo not shown)", "hERG current change (%, negative = inhibition) at 1uM": 12.4},
      {"smiles": "CCOC(=O)CNC(=O)Cn1cnc2c(nnn2-c2ccccc2)c1=O", "hERG current change (%, negative = inhibition) at 1uM": 5.88},
      {"smiles": "CC1=Nn2c(nnc2-c2ccccc2F)SC1", "hERG current change (%, negative = inhibition) at 1uM": 16.2},
      {"smiles": "O=C(COC(=O)C1(c2ccccc2F)CCCC1)NCc1cccs1", "hERG current change (%, negative = inhibition) at 1uM": 7.08},
      {"smiles": "CCC(c1nnnn1Cc1ccc(OC)cc1)N1CCN(c2ccc(OC)cc2)CC1.Cl", "note": "(stereo not shown)", "hERG current change (%, negative = inhibition) at 1uM": 6.43},
      {"smiles": "CC(C)CCN1CCC(C)(NC(=O)c2ccccc2)C1=O", "note": "(stereo not shown)", "hERG current change (%, negative = inhibition) at 1uM": 5.15},
      {"smiles": "O=C(Cn1nc(C(F)(F)F)c2c1CCCC2)Nc1ccc2c(c1)OCO2", "hERG current change (%, negative = inhibition) at 1uM": 5.71},
      {"smiles": "COC(=O)Cn1nc(-c2ccccc2)c2cc(Cl)ccc21", "hERG current change (%, negative = inhibition) at 1uM": 1.95},
      {"smiles": "O=C(O)C(=O)O.c1ccc(CN2CCN(CCOCCOc3cccc4ccccc34)CC2)cc1", "hERG current change (%, negative = inhibition) at 1uM": 5.11},
      {"smiles": "CN(C)c1ccc(CNC(=O)C2CCN(S(=O)(=O)c3ccc4c(c3)CCCC(=O)N4)CC2)cc1", "hERG current change (%, negative = inhibition) at 1uM": 12.2},
      {"smiles": "Cc1cc(OC(C)C(=O)NCc2ccncc2)c2c(C)c(C)c(=O)oc2c1", "note": "(stereo not shown)", "hERG current change (%, negative = inhibition) at 1uM": -17.5},
      {"smiles": "c1ccc2c(c1)CCN(c1nc3cc4c(cc3s1)OCCO4)C2", "hERG current change (%, negative = inhibition) at 1uM": 12.1},
      {"smiles": "COc1ccc(CCn2nnnc2C(CC(C)C)N2CCN(c3ncccn3)CC2)cc1OC", "note": "(stereo not shown)", "hERG current change (%, negative = inhibition) at 1uM": -0.474},
      {"smiles": "CCc1nnc(NC(=O)CCN2C(=O)c3ccccc3C2=O)s1", "hERG current change (%, negative = inhibition) at 1uM": -12.6},
      {"smiles": "O=C(CSc1nnc(COc2ccccc2)o1)c1ccccc1", "hERG current change (%, negative = inhibition) at 1uM": 8.53},
      {"smiles": "O=C(CCNc1n[nH]c(=O)[nH]c1=O)N/N=C\\c1cccc(OCc2ccccc2)c1", "hERG current change (%, negative = inhibition) at 1uM": 9.98},
      {"smiles": "Cc1cc(C)n(CC(=O)Nc2ccc3c(c2)OCO3)c(=O)c1C#N", "hERG current change (%, negative = inhibition) at 1uM": -1.67},
      {"smiles": "CCN(Cc1ccccc1)S(=O)(=O)c1cc(C(=O)NCC2CCCCC2)ccc1OC", "hERG current change (%, negative = inhibition) at 1uM": 10.2},
      {"smiles": "OCc1cc(-c2ccc(Cl)c(Cl)c2)on1", "hERG current change (%, negative = inhibition) at 1uM": 6.67},
      {"smiles": "O=C(CC(=O)Nc1cccc(F)c1)Nc1cccc(F)c1", "hERG current change (%, negative = inhibition) at 1uM": 12.6},
      {"smiles": "CC(Sc1ccccc1)C(=O)Nc1ccccc1C(=O)N1CCOCC1", "note": "(stereo not shown)", "hERG current change (%, negative = inhibition) at 1uM": 10.4},
      {"smiles": "C=C1C2C[C@@]3([C@@H]1O)[C@@H](C[C@@H]2O)[C@@]12C4[C@@H]3C[C@@H]1[C@@](C)(CC[C@@H]2O)CN4CC", "hERG current change (%, negative = inhibition) at 1uM": 17.8},
      {"smiles": "Cc1cccc(NC(=O)CN2C(=O)N/C(=C/c3ccc(-c4cccc(C(=O)O)c4C)o3)C2=O)c1", "hERG current change (%, negative = inhibition) at 1uM": 16.7},
      {"smiles": "CCOC(=O)c1c(NC(=O)CSc2nc3cc(Cl)ccc3s2)sc(C(C)=O)c1C", "hERG current change (%, negative = inhibition) at 1uM": -0.0002},
      {"smiles": "COc1ccc(CCNC(=O)c2ccccc2NS(=O)(=O)c2cc(C(=O)O)ccc2OC)cc1", "hERG current change (%, negative = inhibition) at 1uM": 13},
      {"smiles": "O=[N+]([O-])c1cccc(-c2nnc3ccccn23)c1", "hERG current change (%, negative = inhibition) at 1uM": 1.97},
      {"smiles": "COc1cc(NC(=O)c2cc(S(=O)(=O)N3CCCCC3)c[nH]2)cc(OC)c1", "hERG current change (%, negative = inhibition) at 1uM": 13.1},
      {"smiles": "Cc1ccc(NC(=O)Nc2ccc3c(c2)C(=O)OC3)cc1Cl", "hERG current change (%, negative = inhibition) at 1uM": 12.1},
      {"smiles": "Cc1cc2[nH]c(=S)[nH]c2cc1C", "hERG current change (%, negative = inhibition) at 1uM": -15.5}
    ]}
  ]
}
